Patent US20060165687A1, “Vaccine adjuvant” (DUKE UNIVERSITY, priority 2004, published 2006)

Tested on: Foxp3+, CD25+, CD4+ T-regulatory cells
Assay: T-regulatory recovery after depletion and treatment with TLR-ligands
Settings: for absolute number of Foxp3+, CD25+, CD4+ splenocytes versus untreated group: day 17

C=CCn1c(=O)n([C@@H]2O[C@H](CO)[C@@H](O)[C@H]2O)c2nc(N)[nH]c(=O)c21 [TLR-7 ligand, loxoribine]
absolute number of Foxp3+, CD25+, CD4+ splenocytes versus untreated group: significantly higher numbers | percent of Foxp3+, CD25+, CD4 single positive thymocytes versus untreated mice (day 17, PC61 depleted mice): not significantly different from untreated mice

Poly (I:C) [TLR-3 ligand]
absolute number of Foxp3+, CD25+, CD4+ splenocytes versus untreated mice (day 10): significantly greater levels | absolute number of Foxp3+, CD25+, CD4+ splenocytes versus untreated group: significantly higher numbers | absolute number of Foxp3+, CD25+, CD4 single positive thymocytes versus untreated mice (day 17, PC61 depleted mice): significantly higher | percent of Foxp3+, CD25+, CD4 single positive thymocytes versus untreated mice (day 17, PC61 depleted mice): not significantly different from untreated mice

flagellin [TLR-5 ligand]
percent of Foxp3+, CD25+, CD4 single positive thymocytes versus untreated group (day 10, PC61 depleted mice): no difference
